# From the supplement of paper PMC3334620
# The full ranking holds about 33,000 sequences; the median of “E-score (-0.5 to 0.5)” is about -0.036, and the highest 2% start at about 0.37. The list shows a part of the results.
# Target: T1, Yer064c (UniProt P40041)
# T1 sequence: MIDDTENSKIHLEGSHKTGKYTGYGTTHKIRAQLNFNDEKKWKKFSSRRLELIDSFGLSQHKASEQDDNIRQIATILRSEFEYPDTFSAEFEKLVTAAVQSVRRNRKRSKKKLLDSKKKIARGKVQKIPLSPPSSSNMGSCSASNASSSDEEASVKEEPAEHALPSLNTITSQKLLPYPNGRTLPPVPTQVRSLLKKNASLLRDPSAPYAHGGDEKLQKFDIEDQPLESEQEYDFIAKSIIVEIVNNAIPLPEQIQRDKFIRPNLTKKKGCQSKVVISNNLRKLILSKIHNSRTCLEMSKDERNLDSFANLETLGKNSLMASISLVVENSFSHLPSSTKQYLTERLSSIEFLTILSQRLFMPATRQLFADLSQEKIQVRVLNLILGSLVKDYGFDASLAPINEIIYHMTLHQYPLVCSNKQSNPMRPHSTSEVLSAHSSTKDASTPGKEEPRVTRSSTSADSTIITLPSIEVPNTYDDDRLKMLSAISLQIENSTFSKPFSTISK
# Experiment: PBM E-score (8-mer binding enrichment) (E-score (-0.5 to 0.5)); higher = stronger / more preferred TF binding; most listed sequences are background and not binding sites
# Conditions: protein concentration: 200 nM; construct: GST-full length
# In short: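 Universal all-10-mer Agilent arrays, fresh or stripped once, were converted to double-stranded form by primer extension. GST-tagged yeast transcription factors from PURExpress in vitro transcription/translation, full-length or DNA-binding domain only, were applied at about 100-200 nM and detected with fluorescent anti-GST. After masliner normalisation, the Universal PBM Analysis Suite scored each ungapped eight-base word together with its reverse complement by E-score.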
row,Sequence,PBM E-score
1,TGAACTAA,0.0662
2,AATGTACC,0.0415
3,CCTACTCA,0.0895
4,CGTTTCCC,-0.0481
5,AAGTTATC,-0.0451
6,CTCGAGAG,0.0646
7,GGATAACC,-0.127
8,AGAGGGCG,-0.24
9,GACCTGAC,0.172
10,ACAGTGAA,0.00077
11,AAAGACAG,-0.0264
12,CCCAGTAG,-0.0163
13,GGCATAAA,-0.195
14,GTAGGAGA,-0.0901
15,GAGGCCCA,-0.219
16,AGCCCCTA,-0.358
17,GAGATCGC,-0.1
18,ACGGTGAG,0.103
19,CCATGGTA,0.00037
20,CATCCTGA,0.0636
21,CCCCCAAA,-0.188
22,CCTCTGAG,-0.112
23,TACCGCAA,0.183
24,ACACGTTG,0.0958
25,ACATCCCC,-0.215

row,Sequence,PBM E-score
1,AGAAACGA,0.0587
2,ATGCCCCG,-0.0936
3,CCTAAAGA,0.0245
4,TGGAAACA,-0.107
5,GAGATTCA,0.238
6,AGTGGCTA,0.203
7,ACGAACAC,0.0888
8,GTAATCGA,0.0697
9,CAATGACG,-0.047
10,TATTATCA,0.0515
11,AGGCCTTA,-0.113
12,ATGTAAGC,-0.0792
13,TCTAATCA,0.386
14,CATGCTTA,0.0408
15,CTACGTAG,0.104
16,AAGCGTCT,-0.373
17,GGATTTTA,-0.0301
18,CACCGTAC,-0.0293
19,AAATCCTG,0.05
20,CGGAACTC,0.0164
21,ACTATCAA,0.216
22,CCAGCCGA,-0.133
23,ACAAGCGG,-0.238
24,ATGAGAAC,-0.0445
25,ATCATGAC,0.369

row,Sequence,PBM E-score
1,AATAGACC,-0.19
2,ACCGTAAT,-0.0463
3,GATGTCAC,-0.0347
4,AAGATCTT,-0.036
5,CTTTTTAA,0.0374
6,CGGCGTCA,-0.314
7,CTCTGCAG,-0.00801
8,CAACTATG,-0.0265
9,CGATTTCA,0.183
10,CAGGACTA,0.262
11,CCCTTGAC,0.0569
12,CTCGTTTA,0.079
13,CGTTTCCA,-0.081
14,CCGATCAC,0.112
15,CTAGGGCC,-0.0622
16,TAAACCGA,0.136
17,CGTGGGGA,-0.0579
18,GTTCGTCA,-0.18
19,AGCCCTGC,-0.204
20,AGGGCCAT,-0.302
21,AACGGCTT,-0.309
22,CTCATGTC,0.253
23,GCAGGTGA,0.113
24,AGCCATGG,0.268
25,AGCCTTCC,-0.182

row,Sequence,PBM E-score
1,ATCGGTTC,-0.0981
2,TACGGCTA,-0.145
3,CAGATGAG,0.325
4,GGGGCCAA,-0.182
5,AGAGCTGG,-0.0503
6,GGAGCCCA,-0.126
7,GACTGTAA,0.226
8,GCCTTTGA,-0.0905
9,ACTTAGGA,0.21
10,GTAGTTAA,0.173
11,CGGGCCCG,-0.108
12,CCGCTAAG,-0.0577
13,AGCTCCGA,-0.0181
14,CAGGCCAC,-0.151
15,AGTAGATG,0.0194
16,CAGACGCG,-0.179
17,CTATTCAA,0.05
18,AGGGGTAC,-0.142
19,GTGACACA,0.107
20,GGGAGTAA,0.00383
21,ACCGGGAA,0.00229
22,AGCACGCG,-0.0592
23,AGCTTGGC,-0.115
24,ACTCATTG,0.382
25,GTAGCCCA,-0.0617

row,Sequence,PBM E-score
1,GCAGGGGA,-0.21
2,AGCCTGGC,-0.219
3,CGGAACGC,-0.0754
4,CCGGAGTC,0.373
5,CGGACCTC,-0.265
6,GCTATAGA,-0.00628
7,CGAGACTA,0.37
8,CGCTTGGC,-0.124
9,GATGCGGC,-0.227
10,AGTTTAAC,-0.0695
11,AGTAGACC,0.00168
12,CTGCCTGC,-0.278
13,CACCCCTA,-0.109
14,CACCGCCG,0.0102
15,CAATATGA,0.215
16,ATACCCTA,-0.00778
17,AATCTCTA,0.0427
18,CGTTGCAA,0.0224
19,GCTAAGAC,0.137
20,CAAGCTCG,-0.167
21,ATAAACGC,-0.233
22,CCGTTGGC,-0.245
23,CTGTATCC,-0.163
24,GTGTTTTA,-0.00792
25,CCTCCGGA,-0.0269

row,Sequence,PBM E-score
1,AACGAGGT,0.0692
2,ATTAACCA,0.24
3,CCGAGCAG,0.103
4,AACACCAG,-0.153
5,TTTCAAAA,0.0533
6,AACTGGTA,-0.259
7,TAGGGGGA,-0.199
8,AGTACACT,0.144
9,GTTCCGAA,-0.0766
10,TCAGCAGA,0.214
11,CTATATTC,0.0461
12,ACGAGGCT,0.0286
13,CTAATGGA,0.0291
14,CCCCGATC,-0.242
15,GGGCATGA,0.217
16,GTCCCTCA,-0.0573
17,CGGTCTCA,0.0693
18,GTCAAGCA,-0.0363
19,AGTTAAAT,0.00649
20,ATTCAACC,0.111
21,AGTCGCTG,0.303
22,TAAGTGGA,0.198
23,ATCTCCAA,0.0358
24,CCGGAAGC,-0.385
25,ACAGTAAG,0.125

row,Sequence,PBM E-score
1,AAGTGAGA,0.124
2,TAACTGCA,-0.0363
3,CTACAATA,0.0828
4,CGCTCGTA,0.074
5,TAGCGGGA,-0.235
6,GCTACAAC,0.0558
7,TCGATGAA,0.0335
8,ATCATCAA,0.285
9,ATTCTCTC,-0.07
10,GAGACGAA,-0.0519
11,CGAGACCC,-0.221
12,CGTGTTCC,0.077
13,CTTCGTTC,-0.252
14,GCGTCTCC,-0.246
15,GAAAAAAC,-0.0356
16,CTTTCTCA,0.152
17,ATAATGAT,0.242
18,AGGTGCCA,-0.163
19,CTTGATGC,-0.159
20,AGATGGAG,-0.11
21,CACCTGGC,-0.0538
22,GAGTAGGC,0.0237
